# Assay results reported in the supplement of paper PMC12217912.
# The list shows a part of the results. Sequences were assembled here from the parent chain. Inactive controls read about 0.05.
# B1: TEV protease; numbered along this chain (parent)
# chain: MGESLFKGPRDYNPISSSICHLTNESDGHTTSLYGIGFGPFIITNKHLFRRNNGTLVVQSLHGVFKVKDTTTLQQHLVDGRDMIIIRMPKDFPPFPQKLKFREPQREERICLVTTNFQTKSMSSMVSDTSCTFPSGDGIFWKHWIQTKDGQCGSPLVSTRDGFIVGIHSASNFTNTNNYFTSVPKNFMELLTNQEAQQWVSGWRLNADSVLWGGHKVFMVKPEEPFQPVKEATQL
# Variants of: B1
# Test: raw area under fraction-flipped curve 0-4 h after induction (AUC4h, not background-subtracted), DNA-recorder readout of cleavage of the substrate (dimensionless); higher = more cleavage of the substrate by the protease variant
# Details: temperature: 34 °C; time window: 0-4 h after rhamnose induction
# Procedure: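 In vivo DNA recorder in E. coli TOP10(DE3) ΔrhaA at 34 °C. Each TEVp single-site mutant (parent TEVp 0) is paired with a single-site variant of the 7-mer TEVs (canonical ENLYFQ|S). The substrate sits between flexible linkers in a Bxb1-sfGFP-TEVs-SsrA fusion, so cleavage stabilises Bxb1 and speeds flipping of a recombination array, read by NGS. The value is the raw area under the fraction-flipped curve over 0-4 h after rhamnose induction (AUC4h), with ≥20 reads per time point. It is not background-subtracted; inactive controls average about 0.047.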
# 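Also: Bxb1 expression induced with 0.2% (w/v) L-rhamnose at OD600 near 0.5, cultures sampled hourly, flipped fraction per protease–substrate barcode pair counted by paired-end Illumina sequencing.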
Variant,area with substrate ENAYFQS,area with substrate ENCYFQS,area with substrate ENDYFQS,area with substrate ENEYFQS,area with substrate ENFYFQS,area with substrate ENGYFQS,area with substrate ENHYFQS,area with substrate ENKYFQS,area with substrate ENMYFQS,area with substrate ENNYFQS,area with substrate ENQYFQS,area with substrate ENRYFQS,area with substrate ENSYFQS,area with substrate ENTYFQS,area with substrate ENVYFQS,area with substrate ENYYFQS,area with substrate ENIYFQS,area with substrate ENWYFQS,area with substrate ENPYFQS
V183H,0.0559,0.0379,0.0371,0.0487,0.0612,0.0697,0.0533,0.056,0.051,0.0498,0.0569,0.0296,0.0507,0.0489,0.066,0.052,,,
K185G,0.0575,0.076,0.0549,,0.0647,0.0714,0.0609,0.039,,,0.0537,,0.0675,,,0.0635,0.0906,0.0456,
F187M,0.0655,,0.0543,,0.0602,0.0401,0.0722,,,0.0676,0.0493,0.0534,0.0577,0.0654,0.0846,0.0658,0.102,,
M188P,0.0471,0.0716,0.0619,0.0675,,0.0636,0.0628,0.0633,,0.0422,0.0651,0.0511,,0.0655,,0.0549,,,
L190M,0.0549,,0.0567,0.0633,0.0644,0.0614,0.0547,0.0609,0.085,0.0375,0.0665,0.0646,0.0513,0.0619,0.115,0.0561,,,0.0388
L190Y,0.0253,0.0693,0.0864,0.0597,0.0517,0.0618,0.0356,,,0.0688,0.0648,0.0584,0.0626,0.0586,,0.0644,,0.0649,0.068
L191A,0.0614,0.0581,0.0609,,0.044,,0.0554,0.0589,,0.0143,0.0364,0.0732,0.0567,,,0.0691,0.0768,,0.0582
L191F,0.0595,0.0627,0.055,0.0642,0.0652,0.0765,0.0692,0.066,,0.057,0.066,0.0621,0.0626,0.0601,0.0663,0.0458,0.0982,0.0708,0.0848
L191K,0.0574,0.0492,0.0596,0.05,0.0583,0.0502,0.0546,,0.062,0.0528,0.0521,0.0635,0.0524,0.0496,,0.0401,0.0607,0.0493,0.0483
T192M,0.0706,,0.061,0.0637,0.0632,0.0551,0.0544,0.0629,0.0818,0.0711,0.0511,0.0575,0.0571,0.073,0.0764,0.0651,0.0739,,
E195K,0.07,0.0636,0.0693,0.0582,0.0607,0.0583,,0.0637,,0.0638,0.0551,0.0558,0.046,0.0755,0.0675,0.0617,0.0953,,0.0553
Q197D,0.0577,0.0707,0.0647,0.0588,0.0561,0.0661,,,,0.0585,0.0476,0.0528,0.0603,0.0793,0.0624,,,0.0518,
W199E,0.0622,,0.0617,0.0615,0.0614,0.0633,,,0.0791,0.0527,0.0663,,0.0737,0.0505,0.0662,0.0676,,,0.0702
S201R,0.0556,0.0598,0.0646,0.0532,0.0667,0.0357,0.0507,,0.0793,0.0597,0.0594,,0.0698,,,0.0745,,0.0447,0.0458
W203N,0.0596,0.0697,0.0641,0.0573,0.0412,0.0523,0.0705,,,,0.0702,0.0581,0.0678,0.0538,0.0624,0.0575,0.06,,
R204F,0.0706,0.0543,0.0572,0.0637,,,0.0531,0.0578,0.0808,0.0577,0.0556,,0.056,0.0565,0.102,0.0409,0.117,0.0551,0.0666
R204L,0.0563,0.0684,0.0494,0.0616,0.0588,0.0581,0.065,0.0864,0.061,0.0638,0.0604,0.0571,0.0608,0.0631,0.0643,,,0.0547,0.0516
L205G,0.0594,,0.0694,,0.0493,,,0.0501,0.0645,0.0482,0.0679,0.05,0.0534,0.0488,0.0536,,0.0593,,
L205M,0.0458,0.0616,0.0473,,0.072,,0.0543,0.0618,0.112,,0.0816,0.0477,0.0406,0.0644,0.0739,0.0497,,0.0579,0.0605
S209V,0.0542,,0.05,0.0575,0.0653,0.0714,0.072,0.0719,,0.0694,0.0536,0.0908,0.058,0.0558,0.0841,0.0756,0.102,0.0769,
L211Q,0.0701,,0.0697,0.0544,0.0528,0.0718,0.0676,0.0714,,0.0666,0.067,0.0536,0.0605,0.0553,0.0526,0.0685,0.115,,0.0598
H215C,0.0491,,,,0.0553,,,0.0804,0.069,,,,0.0633,0.072,,,,,
V217C,0.0515,0.0628,0.0536,0.0613,,0.0578,0.0593,0.078,,0.0523,0.0658,0.0496,0.061,0.0718,0.11,0.0452,0.115,,
V217P,0.0577,0.0543,0.0717,0.0719,,,0.0687,0.0458,,0.0638,0.0583,0.0641,0.0675,0.0494,0.0573,0.0563,0.0492,0.0484,
